# Assay results as given in the supplement of paper PMC11741623.
# This is one part of the list. Interaction screen of human proteins with wild-type SARS-CoV-2 proteins by split-DHFR complementation in yeast, 1 µg/mL methotrexate. Value = fitness of the pair (three or more lineages) minus that of the viral protein without a human partner, on a scale set by negative (0) and fused positive (1) controls, mean of up to three cultures; higher = more likely to interact. Active = false discovery rate below 0.05 (one-sided t-test) in at least one culture. Nearly all pairs are not hits, and differences among them are mostly noise (correlation between cultures about 0.3); most hits were seen in one culture only. Human sequences are the Swiss-Prot entries looked up by gene name; the clone may be another isoform. NSP2 values were corrected by the authors for a growth advantage. Listed are human proteins with a hit and a random twelfth of the others.
# B1: E4F1, Q66K89 (protein)
# chain: MEGAMAVRVTAAHTAEAQAEAGREAGEGAVAAVAAALAPSGFLGLPAPFSEEDEDDVHRCGRCQAEFTALEDFVQHKIQKACQRAPPEALPATPATTALLGQEVVPAAPGPEEPITVAHIVVEAASLAADISHASDLVGGGHIKEVIVAAEAELGDGEMAEAPGSPRQQGLGLAGEGEQAQVKLLVNKDGRYVCALCHKTFKTGSILKAHMVTHSSRKDHECKLCGASFRTKGSLIRHHRRHTDERPYKCSKCGKSFRESGALTRHLKSLTPCTEKIRFSVSKDVVVSKEDARAGSGAGAAGLGTATSSVTGEPIETSPVIHLVTDAKGTVIHEVHVQMQELSLGMKALAPEPPVSQELPCSSEGSRENLLHQAMQNSGIVLERAAGEEGALEPAPAAGSSPQPLAVAAPQLPVLEVQPLETQVASEASAVPRTHPCPQCSETFPTAATLEAHKRGHTGPRPFACAQCGKAFPKAYLLKKHQEVHVRERRFRCGDCGKLYKTIAHVRGHRRVHSDERPYPCPKCGKRYKTKNAQQVHFRTHLEEKPHVCQFCSRGFREKGSLVRHVRHHTGEKPFKCYKCGRGFAEHGTLNRHLRTKGGCLLEVEELLVSEDSPAAATTVLTEDPHTVLVEFSSVVADTQEYIIEATADDAETSEATEIIEGTQTEVDSHIMKVVQQIVHQASAGHQIIVQNVTMDEETALGPEAAAADTITIATPESLTEQVAMTLASAISEGTVLAARAGTSGTEQATVTMVSSEDIEILEHAGELVIASPEGQLEVQTVIV
# B2: PLD5, Q8N7P1 (protein)
# chain: MEIRQHEWLSASPHEGFEQMRLKSRPKEPSPSLTRVGANFYSSVKQQDYSASVWLRRKDKLEHSQQKCIVIFALVCCFAILVALIFSAVDIMGEDEDGLSEKNCQNKCRIALVENIPEGLNYSENAPFHLSLFQGWMNLLNMAKKSVDIVSSHWDLNHTHPSACQGQRLFEKLLQLTSQNIEIKLVSDVTADSKVLEALKLKGAEVTYMNMTAYNKGRLQSSFWIVDKQHVYIGSAGLDWQSLGQMKELGVIFYNCSCLVLDLQRIFALYSSLKFKSRVPQTWSKRLYGVYDNEKKLQLQLNETKSQAFVSNSPKLFCPKNRSFDIDAIYSVIDDAKQYVYIAVMDYLPISSTSTKRTYWPDLDAKIREALVLRSVRVRLLLSFWKETDPLTFNFISSLKAICTEIANCSLKVKFFDLERENACATKEQKNHTFPRLNRNKYMVTDGAAYIGNFDWVGNDFTQNAGTGLVINQADVRNNRSIIKQLKDVFERDWYSPYAKTLQPTKQPNCSSLFKLKPLSNKTATDDTGGKDPRNV
# Target: SARS-CoV-2 M
# Test: yeast fitness gain over the viral ORF with no human partner (scaled fitness); higher = more likely to interact
# Experimental: (§1)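 Split mouse DHFR complementation in pooled diploid yeast: human ORFeome clones carry one fragment and viral ORFs the other; barcoded lineages compete in 1 µg/mL methotrexate and fitness is read by barcode sequencing in up to three cultures.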
row,Binder,yeast fitness gain
1,B1,inactive: 0.00969
2,B2,inactive: -0.0852

# Target: SARS-CoV-2 NSP1
# Test: as above
# Experimental: as §1
row,Binder,yeast fitness gain
1,B1,inactive: 0.00343

# Target: SARS-CoV-2 NSP10
# Test: as above
# Experimental: as §1
row,Binder,yeast fitness gain
1,B1,inactive: 0.0449
2,B2,inactive: 0.252

# Target: SARS-CoV-2 NSP12
# Test: as above
# Experimental: as §1
row,Binder,yeast fitness gain
1,B1,inactive: -0.0168
2,B2,inactive: 0.541

# Target: SARS-CoV-2 NSP13
# Test: as above
# Experimental: as §1
row,Binder,yeast fitness gain
1,B1,inactive: 0.0109
2,B2,inactive: -0.0567

# Target: SARS-CoV-2 NSP14
# Test: as above
# Experimental: as §1
row,Binder,yeast fitness gain
1,B1,inactive: 0.0825

# Target: SARS-CoV-2 NSP15
# Test: as above
# Experimental: as §1
row,Binder,yeast fitness gain
1,B1,inactive: 0.0157
2,B2,inactive: 0.0197

# Target: SARS-CoV-2 NSP16
# Test: as above
# Experimental: as §1
row,Binder,yeast fitness gain
1,B1,inactive: -0.0337

# Target: SARS-CoV-2 NSP2
# Test: as above
# Experimental: as §1
row,Binder,yeast fitness gain
1,B1,inactive: -0.175
2,B2,inactive: 0.601

# Target: SARS-CoV-2 NSP5
# Test: as above
# Experimental: as §1
row,Binder,yeast fitness gain
1,B1,inactive: -0.0441

# Target: SARS-CoV-2 NSP6
# Test: as above
# Experimental: as §1
row,Binder,yeast fitness gain
1,B1,inactive: -0.0421
2,B2,inactive: -0.0712

# Target: SARS-CoV-2 NSP7
# Test: as above
# Experimental: as §1
row,Binder,yeast fitness gain
1,B1,inactive: 0.0576

# Target: SARS-CoV-2 NSP8
# Test: as above
# Experimental: as §1
row,Binder,yeast fitness gain
1,B1,inactive: 0.0639
2,B2,inactive: -0.0251

# Target: SARS-CoV-2 NSP9
# Test: as above
# Experimental: as §1
row,Binder,yeast fitness gain
1,B1,inactive: -0.0276

# Target: SARS-CoV-2 ORF10
# Test: as above
# Experimental: as §1
row,Binder,yeast fitness gain
1,B1,inactive: -0.0708
2,B2,inactive: 0.00661

# Target: SARS-CoV-2 ORF3A
# Test: as above
# Experimental: as §1
row,Binder,yeast fitness gain
1,B1,inactive: -0.0498

# Target: SARS-CoV-2 ORF3B
# Test: as above
# Experimental: as §1
row,Binder,yeast fitness gain
1,B1,inactive: 0.0772
2,B2,inactive: -0.0186

# Target: SARS-CoV-2 ORF6
# Test: as above
# Experimental: as §1
row,Binder,yeast fitness gain
1,B1,inactive: 0.00811
2,B2,inactive: 0.236

# Target: SARS-CoV-2 ORF7A
# Test: as above
# Experimental: as §1
row,Binder,yeast fitness gain
1,B1,inactive: 0.0673

# Target: SARS-CoV-2 ORF7B
# Test: as above
# Experimental: as §1
row,Binder,yeast fitness gain
1,B1,inactive: 0.0738

# Target: SARS-CoV-2 ORF8
# Test: as above
# Experimental: as §1
row,Binder,yeast fitness gain
1,B1,inactive: -0.0985
2,B2,inactive: 0.211

# Target: SARS-CoV-2 ORF9B
# Test: as above
# Experimental: as §1
row,Binder,yeast fitness gain
1,B1,inactive: 0.00927
2,B2,inactive: -0.0798

# Target: SARS-CoV-2 ORF9Bwu (the 73-codon ORF)
# Test: as above
# Experimental: as §1
row,Binder,yeast fitness gain
1,B1,inactive: -0.174

# Target: SARS-CoV-2 S
# Test: as above
# Experimental: as §1
row,Binder,yeast fitness gain
1,B1,inactive: -0.0978
2,B2,inactive: -0.0544
